This passage reports self-cleavage results from the RNAGym collection of RNA variant scans (doi:10.7554/elife.90254).

Sequences and labels used below:
B1: LINE1-full (parent)
chain: UACGUAGGUGGUUUUCCCCUGAUAGUGCUAAGGGGGCCUGGAAGUUUGGACUGGGCAGAGCUCAACACAGCGUGGCAAAGUGGCUGUGGCUAGACUGCCUCUCUGGAUUCCUCGUCACUCAGCAGGGCAUCUCUGAGAGAAAUGCC

Read counts are not given, so values of variants with three or more changes are uncertain.

The variants in this data set derive from B1. Briefly: self-cleavage, relative activity (ratio to wild type); higher = more cleavage; in vitro, sequencing; the parent is a self-cleaving ribozyme.
Take U15A U102A A136G: the self-cleavage worked out at 0.69. For the variant U14C U26A C61A U91A U130C, the self-cleavage was determined as 0.02. For the variant U15C A57U A65G A77U A78U U143C, the self-cleavage is 0.14. As for U15A U39C G82A, the self-cleavage was determined as 0.91.

Take U15C A31G U62C A79G A124U A138G: the self-cleavage came out at 0.24. Take U15C A22G A94G: the self-cleavage was 0.18. The same measure for U14C U26C A69G A107U U112A G125A: 0; for U14C U47A A141G: 0.64; for U15A U47C U104C: 0.79.

In the case of U15C A78U U109C, the self-cleavage was determined as 2.07.

U15C A67G U134C: the self-cleavage was determined as 0.73. The result for U14G A22U A43G A57U C120U reads 0.1.

For the variant U15C A57U G88A C116G A136U, the self-cleavage was 0.07.

Regarding U14C G74A A117U, the self-cleavage turned out to be 0.68.

As for U14C U20A U29C U81C U112A, the self-cleavage was 0.

As to U15C A64G U119A, the self-cleavage worked out at 0.13. On to U14C U20A A24G U81C U96C, for which the self-cleavage was 0.

As to U15C C37G A129G, the self-cleavage came out at 1.31. Turning to U15A C110U U130A, the self-cleavage amounted to 1.08.

Turning to U15A G58A U134C A136U, the self-cleavage was determined as 0.08.

With U15C A117G A140U G144A, the self-cleavage came out at 1.25. With U14C U20C U52A U109C G139A, the self-cleavage worked out at 2.76.

For the variant U15A A67U U108C U134C A140G, the self-cleavage turned out to be 0.26.

Take U15A A43U U73C: the self-cleavage was determined as 1.12. For the variant U15C C76U U119C A141G, the self-cleavage was found to be 2.78. Take U15C A124U A140G: the self-cleavage amounted to 1.25. On to U15C C28U C63U U73C A129G A138G, for which the self-cleavage stood at 0.17. The same measure for U14C U39C A121U: 1.59. On to U14C U91C U102A A117U, for which the self-cleavage was found to be 0.

For the variant U14C G82A U91C U102C U109C, the self-cleavage turned out to be 0.67.

Take U14C U45C A64U A138U: the self-cleavage worked out at 0.79. The result for U15A A50G U52C A65G C71U C118U reads 0.11. The result for U15C C28A U87A A140G reads 0.14.

For U14C U20C U26C A78G, the self-cleavage was 0.24. The result for U15C G60A A124U A129U A140G reads 0.04; that for U14C U20C U85C, 0; that for U14C U62C A138G A142U, 0.07. The same measure for U14C U87C U134C A138G: 0.26; for U15A U20C A31G A121G A129U: 0.

U15C A22U A142G: the self-cleavage came out at 1.12.

Turning to U14C U62C U73C U85A, the self-cleavage is 0.05. In the case of U14G A79G A107G, the self-cleavage came out at 1.39.

With U15A A50U C71G A77G A107U A121U, the self-cleavage is 0.09. The result for U14C U96C U104C U119C C133A reads 0. The same measure for U14C U15C A65G U119C U132C: 0.66; for U15A C17U A78U U132C: 1.57; for U14C U45G U85C G135A: 0.16. With U15A A42G U130C A138G, the self-cleavage was determined as 1.02. The same measure for U15A A121G A142G: 1.52; for U14C U45A U104C: 1.01; for U14C U115C A117U: 2.23. The same measure for U15C C17G A92U: 1.15; for U15C G34A U39C G54U: 1.19. The result for U15A A67U U112C A138U reads 0.3; that for U15C A42G U132C, 2.63.

On to U15C A57U A107G, for which the self-cleavage turned out to be 0.13.

U15C A57U G125A U130C: the self-cleavage came out at 0.29. Turning to U15C A78G C113U, the self-cleavage is 1.62.

For U15C A117G A136G, the self-cleavage was determined as 1.55. Turning to U15A U39G G54U C110U U132A A142G, the self-cleavage is 0.6. The same measure for U15C A22G U81A U130A A142G: 1.79; for U15C G35U A140U: 0.76; for U15A A77G G82A: 2.25. The result for U14C U26C A42G G125A reads 1.23; that for U14C U26A U47C U109C, 0.96. The result for U14C U26A A121G reads 0.74; that for U15C A30G U108C, 0.54.

As to U14C U26C G41U, the self-cleavage was 1.28. The same measure for U14C U73C A78G U132C: 1.15. The result for U15A A117G U119C reads 1.53. The result for U14C U62A A129U reads 0.11; that for U15C G32A G34U A59G A121U, 0.08. Turning to U14G G53A U81A U87C U119C, the self-cleavage was found to be 0.43.

For the variant U15C A77G U104A, the self-cleavage was 2.17. Take U15C A57U A64G: the self-cleavage turned out to be 0.11.

U15C A43G A64U U109C A121G A141G: the self-cleavage was 0.52. The result for U15C G21A U112C reads 1.22. The result for U14C U26A A59G A78G C113U A124U reads 0.17. The same measure for U14C U119A A136G: 1.49. Take U15A A64G G72A: the self-cleavage was determined as 0.14.

U15A U85G C111A: the self-cleavage was found to be 0.09. U15A C37U A43G: the self-cleavage worked out at 0.7. The result for U15A U81A G135U reads 1.17; that for U14C G93U C99U G106U, 0.04.

As to U15A A50G A142G, the self-cleavage stood at 0.89. Take U14C G53U U143C: the self-cleavage worked out at 1.47. The result for U14C U15C U45C reads 0.17; that for U15C A24U A43U, 1.54. U15C G89A A138G: the self-cleavage is 0.07.

Consider U15C A22G G72A A142G, for which the self-cleavage came out at 0.99. U14C U20C C71A A124G: the self-cleavage came out at 0.13.

Regarding U15C G48A A57C U102A A121U, the self-cleavage turned out to be 0.01.

Regarding U15C A59G U62C U102C U104A U134C, the self-cleavage is 0. The same measure for U15A A67G A77G: 0; for U15C A22G G49U A79G: 0.8; for U15C A22G C116U U119A: 0.82. As for U14C U20C A59G, the self-cleavage stood at 0.26. Consider U14G U23C U85A U134C, for which the self-cleavage came out at 0. The same measure for U15A A64G A79G G82A: 0.08; for U14C U73A U87C U132C: 0. The same measure for U15C C19U C37G A141G: 1.65; for U15A A59G C99A G126A: 0.1; for U15A A77G U119G A140U: 1.23. The result for U15A A30G A140G C145U reads 1.12. In the case of U14C U115A A136G, the self-cleavage came to 0.66. With U15C A43G A50G, the self-cleavage is 1.38. In the case of U14C U23G A24G, the self-cleavage amounted to 0. The result for U15A A129U G144A reads 0.82. The result for U14C U112C A124G reads 1.27; that for U14C U46C A65G U102C, 0; that for U14C U73C U104A, 0.48. The same measure for U14C U26A A42U A107U U108C: 0.66. On to U15A A69G U73C A141G U143C, for which the self-cleavage worked out at 0. The same measure for U15A U45C A67U A69G: 0.17; for U14C U119C U143A: 1.91; for U14C U20A U47A A142G C145A: 0.67. The result for U15A U45C A57G A79G reads 0; that for U15A A79G U96C, 0.33; that for U14C U23C U47C, 1.12. As to U15A U26A U73G A136U A140G, the self-cleavage stood at 1.93. Turning to U14C U85A U102A U108C, the self-cleavage came to 0.

With U14C G80A A117G, the self-cleavage amounted to 1.91. As for U15C C19A G54U A107G A138G A141G, the self-cleavage is 1.56. The result for U14C U104A A121U A138G reads 2.55; that for U14C U91A A117U, 1.69; that for U15C A107G A138G, 1.69. The result for U15A G54A U115C A124G reads 0.32; that for U15A A22G U47C C95U G135A, 0.58; that for U14C G53A U81C A92U U130C A141G U143C, 1.48. As to U15C A77U U91C, the self-cleavage turned out to be 0.95.

On to U15A U87A A129G, for which the self-cleavage was determined as 0.06.

Take U15C A77U A129U: the self-cleavage was determined as 1.2. Consider U14C U46C A57G A138G, for which the self-cleavage came to 0.

Regarding U14C U20A U115C, the self-cleavage amounted to 3. The result for U15C C61U A65U A107U A141U reads 0.06; that for U14C U96A U119C, 0.16. As for U15A U115A C145U, the self-cleavage came out at 1.01. The same measure for U14C U109A U143C: 0.84. The same measure for U15A U46A U143C: 0.62; for U14G A22G U52A: 0.97.

As to U15C C16U C19U, the self-cleavage came to 0.75. For the variant U14C U81C U96A, the self-cleavage was 0.17.

Consider U15A A22G U29A G125U G126A, for which the self-cleavage turned out to be 0.53. The result for U15C A22U A24G A78U U102C A136G reads 1.53. Consider U15C A65G U108C, for which the self-cleavage was 0.14.

As for U15C G40A U47A U130C, the self-cleavage was determined as 1.51. U14C U81C A140G: the self-cleavage was 1.23.

With U15A G93U A136G, the self-cleavage was 0.03. As for U15C G60C U73C U91A, the self-cleavage turned out to be 0.11. Turning to U14C U52G C99U U115C, the self-cleavage stood at 1.84.

As for U14C U81G A107G, the self-cleavage came to 1.47. Consider U15A G60A C61U U104A U108C, for which the self-cleavage worked out at 0.04. On to U14C G48C U130C A138U, for which the self-cleavage turned out to be 2. For U14C U26C G127U, the self-cleavage was 1.26. The result for U15C A31G A78U A92G U115C A136U A142G reads 0.46; that for U14G U46C U87A A136G, 0. Take U15A A67C U87C: the self-cleavage is 0.25. The result for U14C U130C U132A reads 1.63. The same measure for U15A U62C U73C G82A A94G A117G: 0. The same measure for U14C U20C U132A: 1.84; for U14G A22G A50G U130G: 1.15. Turning to U15C U20A A24G U85A, the self-cleavage stood at 0.3. For U14C U108C U115A U130C, the self-cleavage was determined as 1.84. The same measure for U14C U87C U109C: 0; for U14G G53U A67U A78G: 0.17. The result for U15C A22C U47A U96C reads 0.09.

Regarding U14C U26A A140U, the self-cleavage came out at 0.68.
